Test results as given in PubChem BioAssay AID488969 (Vanderbilt High Throughput Screening Facility, 2010).
Several values for one entry are separate records, joined by “and”; a condition that tells them apart may be missing. Equal values may be shown once. The full ranking holds about 110,000 compounds; the median of “z-score” is about -0.1, and the highest 2% start at about 2. The list shows a part of the results.

Molecular target: Metabotropic glutamate receptor 8 (Rattus norvegicus) (UniProt P70579)
Chain of UniProt P70579 (P70579 whole entry, looked up): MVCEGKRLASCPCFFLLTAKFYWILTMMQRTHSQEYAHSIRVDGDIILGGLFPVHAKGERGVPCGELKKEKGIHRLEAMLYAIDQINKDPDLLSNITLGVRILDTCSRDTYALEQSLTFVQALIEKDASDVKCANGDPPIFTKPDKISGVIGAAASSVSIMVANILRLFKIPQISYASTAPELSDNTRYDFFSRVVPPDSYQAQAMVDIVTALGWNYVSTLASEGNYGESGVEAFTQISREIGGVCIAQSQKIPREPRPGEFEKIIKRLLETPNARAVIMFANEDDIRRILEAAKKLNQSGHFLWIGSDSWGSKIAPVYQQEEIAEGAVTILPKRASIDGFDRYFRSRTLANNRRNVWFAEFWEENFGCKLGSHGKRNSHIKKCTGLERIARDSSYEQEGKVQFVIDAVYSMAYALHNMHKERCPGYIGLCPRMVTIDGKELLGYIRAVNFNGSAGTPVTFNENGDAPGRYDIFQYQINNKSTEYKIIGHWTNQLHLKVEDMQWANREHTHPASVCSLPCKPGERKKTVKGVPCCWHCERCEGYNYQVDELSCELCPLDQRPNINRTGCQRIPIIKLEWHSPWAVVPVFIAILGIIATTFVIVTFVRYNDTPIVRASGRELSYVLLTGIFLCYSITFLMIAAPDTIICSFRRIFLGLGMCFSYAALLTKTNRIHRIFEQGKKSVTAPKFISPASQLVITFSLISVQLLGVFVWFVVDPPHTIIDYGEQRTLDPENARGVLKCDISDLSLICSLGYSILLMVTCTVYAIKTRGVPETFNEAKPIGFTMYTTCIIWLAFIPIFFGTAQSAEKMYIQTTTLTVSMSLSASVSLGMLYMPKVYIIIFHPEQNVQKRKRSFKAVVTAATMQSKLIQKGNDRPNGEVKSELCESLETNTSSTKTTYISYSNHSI
Test: rat mGluR8 modulators via GIRK flux, primary screen, cell-based, thallium flux, HTS (AID 488969)
Details: HEK293 rat mGluR8, GIRK (G protein-gated inwardly rectifying potassium channel) thallium flux, FluoZin2; at 10 µM; stronger effect = higher value

SMILES | z-score
CN1C(=O)C(=Cc2ccc(N3CCCCCC3)o2)C(=O)N(C)C1=S | -0.22
CCOC(=O)c1ccc(N2C(=O)CC(N3CC=C(c4ccc(F)cc4)CC3)C2=O)cc1 (configuration not stated) | 1.81
CC12CN3CC(C)(CN(C1)C31CCOCC1)C2=O | -1.07
Cc1ccc(-n2c(O)c(/C=C/C=Nc3ccccc3)c(=O)[nH]c2=O)cc1 | -0.158
CCc1cc2c(N3CCN(C)CC3)ncnc2s1 | -0.448
CN(C)C(=O)Oc1cc(=O)n2c3c(cccc13)CCC2 | -0.28
CC(C)C12CN3CC(C(C)C)(CN(C1)C3c1cccnc1)C2=O (configuration not stated) | -0.0725
COc1ccc2nc(/N=C/c3c(O)n(-c4cccc(Cl)c4)c(=O)[nH]c3=O)sc2c1 | 0.142
Cc1ccc(N2C(=O)NC(=O)/C(=C/c3cnn(-c4ccc(C)cc4)c3)C2=O)cc1 | -0.638
Cn1cccc1/C=C1/C(=O)NC(=O)N(Cc2ccccc2)C1=O | -0.709
Cc1nn(Cc2ccccc2)c(C)c1C(=O)NC1CCCc2ccccc21 (configuration not stated) | -0.279
CCOC(=O)CC1=C(C(=O)OCC)C2(C(=O)N1)C(C(=O)OC)=C(N)Oc1ccccc12 (configuration not stated) | 0.243
CCN(CC)CCN=Cc1c(O)n(CCC2=CCCCC2)c(=O)[nH]c1=O | 0.365
CN1C(=O)C(Cc2nc3ccccc3c(=O)n2-c2ccccc2)c2ccccc21 (configuration not stated) | 1.11
Clc1ccc2c(c1)C(OC1CN3CCC1CC3)c1ccccc1CS2 (configuration not stated) | -0.815
C=Cn1ccnc1P(=S)(c1ccc(N(C)C)cc1)c1nccn1C=C | -0.283
Cc1ccccc1C(O)(Cc1ccccc1)C1CN2CCC1CC2 (configuration not stated) | -0.323
CN1CCN(C(=S)SCC(=O)Nc2ccc(Cl)cc2C(=O)c2ccccc2)CC1 | -0.329
Cc1ccc(-n2nc(C)c(C3C(C#N)=C(N)Oc4c3c(=O)oc3ccccc43)c2Cl)cc1 (configuration not stated) | -0.16
O=c1[nH]c(=S)n(Cc2ccc(F)cc2)c(O)c1/C=N/N1CCCCC1 | -0.0895
O=C(COc1ccc2ccccc2c1)N1CCN(Cc2c[nH]c3ccccc23)CC1 | -0.00703
CCCCn1c(O)c(C(CC)=NCc2cccnc2)c(=O)[nH]c1=O | -0.0749
Cc1ccc2c(CN3CC=C(c4ccccc4)CC3)cc(=O)oc2c1C | -0.207

SMILES | z-score
Cc1ccccc1CCNCc1ccc(Br)cc1 | 0.734
O=C(Cn1cnc2ccccc2c1=O)NCC(=O)N1CCC2(CC1)OCCO2 | 0.722
COc1cc(/C=C2\C(=O)NC(=O)N(c3ccccc3)C2=O)cc(OC)c1OC | -0.207
COc1ccc2[nH]c(C)c(CCN3CCC(=O)C(C)C3C)c2c1 (configuration not stated) | -0.132
CC1C(c2cccs2)=[N+]([O-])C(C)(C(=O)c2ccc(F)cc2)N1O (configuration not stated) | 0.251
Cc1ccc(C2CC(=O)C(C=NCCN3CCN(C(=O)Cc4ccccc4)CC3)=C(O)C2)cc1 (configuration not stated) | -0.686
O=c1c2ccccc2nc(-c2ccoc2)n1-c1ccccc1Cl | 1.33
Cc1cccnc1NC1=NCC(C)S1 (configuration not stated) | 0.376
Cn1cc(C(=O)c2ccccc2)c2ccccc21 | -0.512
O=c1c2ccccc2nc(-c2ccccc2)n1-n1cccc1 | 0.729
CCN1CCN(c2nc3ccccc3s2)CC1 | -0.135
COc1ccccc1OCC(=O)Nc1ccc(Cl)cc1C(=O)c1ccccc1 | -0.512
CCn1cc(C(=O)N2CCC3(CC2)OCCO3)c(=O)c2cc(S(=O)(=O)N3CCCC3)ccc21 | -0.0808
CCOc1cc(C=C2C(=O)NC(=O)NC2=O)ccc1OS(=O)(=O)c1ccccc1 | 0.715
CCOP(=O)(OCC)C(NC(=O)c1ccccc1)C(Cl)(Cl)Cl (configuration not stated) | -0.213
CCN1CCN(c2ccc(NC(=O)C(C)C)cc2Cl)CC1 | 0.168
CCCCc1nc2ccccc2c(=O)n1-c1ccc(O)cc1 | 0.0576
CCOC(=O)CN1C(=O)C2(C(C#N)=C(N)Oc3ccccc32)C(C(=O)OC)=C1C (configuration not stated) | 0.00892
CN1CCN(c2cccc3c2C(=O)c2ccccc2C3=O)CC1 | -0.771
O=c1[nH]c(=O)n(CCC2=CCCCC2)c(O)c1C=NCCCn1ccnc1 | 0.515
Cc1cccc(OP(=O)(Nc2cccnc2)Oc2cccc(C)c2)c1 | -0.0316
Cc1cccc(N2CCc3c2nc2ccccc2c3N)c1 | -0.172 and 1.53
Cc1ccc(-c2nn(Cc3ccccc3)cc2C=O)cc1 | -0.296

SMILES | z-score
Cc1[nH]n(-c2ccccc2)c(=O)c1C(c1ccc([N+](=O)[O-])cc1)c1c(C)[nH]n(-c2ccccc2)c1=O | -0.644
Cc1[nH]c2ccccc2c1CCCNC1CCCCC1 | 0.385
Nc1ccc2c(c1)Cc1ccccc1-2 | -0.395
O=C1NC(=O)C(CCc2ccncc2)(Cc2cccc(Cl)c2Cl)C(=O)N1c1ccc(Br)cc1 (configuration not stated) | -1.33
O=C(c1cc(-c2cccnc2)nc2ccccc12)N1CCC2(CC1)OCCO2 | -0.551
O=c1[nH]c(CN2CC=C(c3ccccc3)CC2)nc2cc(C(F)(F)F)ccc12 | 0.082
CC1=CC(=O)C2=C(C)CC(O)C3C(C)C(=O)OC3C12 (configuration not stated) | -0.859
OCCN1C2CCC1CC(O)(c1ccc(F)cc1)C2 (configuration not stated) | -0.263
CC(=NCCN1CCCCC1)c1c(O)n(-c2ccc(Cl)cc2)c(=O)[nH]c1=O | 0.081
CCC(=O)CC(c1ccccc1)c1c(O)c2ccccc2sc1=O (configuration not stated) | -0.144
COc1ccc(C(O)c2cc(OC)ccc2OP(=O)(N(C)C)N(C)C)cc1 (configuration not stated) | -0.13
COc1cc(C(c2c(O)c3ccccc3oc2=O)c2c(C)n(C)n(-c3ccccc3)c2=O)ccc1O (configuration not stated) | -0.181
c1ccc(C2NCc3ccccc3-n3cccc32)cc1 (configuration not stated) | -0.239
O=C(COc1ccccc1)N1CCN(CC2CC3C=CC2C3)CC1 (configuration not stated) | 0.446
COCCCN1Cc2ccccc2C1=N | -0.132
Cc1nn(C2CCOC(C)(C)C2)c2c1C(c1ccc(OC(C)C)cc1)SCC(=O)N2 (configuration not stated) | -0.843
C#CCOCOCC#CCN(CC)CC | 0.44
CN1CCC(n2nccc2N)CC1 | 1.1
Fc1ccc(C2NCCc3[nH]cnc32)cc1 (configuration not stated) | -1.62
Cc1ccccc1N1C(=O)CC(=O)NC1=O | 0.515
CN(CC(=O)Nc1ccccc1-c1ccccc1)C1CCCCC1 | 0.245
CCOC(=O)c1nc2ccccc2c(=O)n1-c1ccc(C)cc1C | -1.02
Cc1ccc(Cn2nnnc2CN2CCC(n3nnc4cc(C(F)(F)F)ccc43)CC2)cc1 | -0.00751

SMILES | z-score
Cc1cccc(C)c1NC(=O)c1cccn(Cc2ccc3c(c2)OC(F)(F)O3)c1=O | -0.292
Cn1cc(C(=O)N2CCC3(CC2)OCCO3)c2c3ccccc3n(C)c2c1=O | 0.775
O=C(NCC(c1cccnc1)N1CCN(c2ccccc2F)CC1)Oc1ccccc1 (configuration not stated) | 0.181
CCOC(=O)[C@@]1(C#N)[C@@H]2C=CC(C(N)=O)=CN2[C@@H](C(N)=O)[C@@H]1c1cccc(Cl)c1 | -0.0983
O=C1/C(=C\c2ccc([N+](=O)[O-])cc2)N2CCC1CC2 | 0.0123
c1cc2c(cc1CCNC1C3CC4CC(C3)CC1C4)OCO2 (configuration not stated) | 2.3
CN1CCN(Cc2nnc3n2-c2ccc(Cl)cc2C(c2ccccc2)=NC3)CC1 | -0.238
CCCCN1C(=O)/C(=C\c2ccco2)C(=O)N(CCc2ccccc2)C1=O | -0.196
CN1CCN(c2nc(N(C)C)oc(=O)c2C#N)CC1 | 0.0696
Cc1nn(Cc2ccccc2Cl)c(C)c1C(=O)OCC(=O)N1CC(C)OC(C)C1 (configuration not stated) | -0.383
Cn1c(O)c(C=NCc2cccs2)c(=O)n(C)c1=O | 0.785
CCCCCCn1c(O)c(C=NC2CCN(Cc3ccccc3)CC2)c(=O)[nH]c1=O | 0.147
CC(ON1CC1(C(F)(F)F)C(F)(F)F)(C(N)=O)C(N)=O (configuration not stated) | -0.0566
CCCCN1C(=O)C(C2c3ccccc3C(=O)N2Cc2ccccc2)C(=O)NC1=S (configuration not stated) | -0.451
Cc1cc(C)[n+](C2C3CC4CC(C3)CC2C4)o1 (configuration not stated) | -0.636
CCCCCCCSc1cc(OC)c(CCNC)cc1OC | 2.15
C=CCn1c(O)c(C(C)=NCCc2ccccc2)c(=O)[nH]c1=O | -0.42
O=C1c2ccccc2C2(c3ccc(Cl)cc3)NCCN12 (configuration not stated) | -0.42
CCCCN1C(=N)C(CC)(CC)C(=O)NC1=O | -0.0121
CCN(CC)S(=O)(=O)c1ccc(NN=C(C#N)C#N)cc1 | 0.152
CCOC(=O)C1=C(N)OC2=C(C(=O)CCC2)C12C(=O)N(CC(N)=O)c1ccccc12 (configuration not stated) | 0.437
O=C(Cc1cccs1)N1CCC2(CC1)OCCO2 | -0.0671
CC1CN=C(Nc2cccc3ccccc23)S1 (configuration not stated) | -0.203

SMILES | z-score
CCN1CCN(Cc2cc(Br)ccc2O)CC1 | 0.115
O=C(c1ccc2c(c1)ncn2C1CCCCC1)N1CCC2(CC1)OCCO2 | -0.048
O=C1NC(=O)N(Cc2ccco2)C(=O)/C1=C/c1ccc(-c2cccc([N+](=O)[O-])c2)o1 | -0.581
O=[N+]([O-])c1ccc(Nc2ccccc2)cc1 | -1.4
CC(=O)OC1C2CCC1C(N1CCCC1)CC2 (configuration not stated) | -0.278
O=C(Cc1ccccc1)OC(COCc1ccccc1)CN1CCOCC1 (configuration not stated) | -0.289
O=C(c1ccccc1F)c1cn(Cc2ccccc2)c2ccccc12 | -0.253
N=Cc1c(O)n(-c2cccc(Cl)c2)c(=O)[nH]c1=O | 0.745
Cc1ccc(-c2cc(C(F)F)n3ncc(C(=O)N4CCC5(CC4)OCCO5)c3n2)cc1 | -0.808
Cc1cc(N)n(C2CCN(C)CC2)n1 | 0.0226
Cc1ccc(Cl)cc1N1CCN(CCN)CC1 | -0.607
O=Cc1cn(Cc2cccc([N+](=O)[O-])c2)c2ccccc12 | -0.285
C=CCN1C(=O)NC(=O)C(Cc2ccc(OC)c(OC)c2)C1=O (configuration not stated) | 0.487
O=c1[nH]c2ccccc2c(=O)n1-c1cccc(Cl)c1 | -0.0839
CCC(=NCCc1c[nH]c2ccccc12)c1c(O)n(-c2ccc(C)cc2)c(=O)[nH]c1=O | 0.261
CN(C)C(Cc1ccc(C#N)cc1)C(=O)c1ccccc1 (configuration not stated) | -0.0967
CCC(C)NC(=O)c1c(N)n(Cc2ccc3c(c2)OCO3)c2nc3ccccc3nc12 (configuration not stated) | -0.217
Cc1ccc2c(c1)C1CN(C)CCC1N2C(=O)c1ccco1 (configuration not stated) | 0.116
CC(C)OCCCNC(=O)c1c(N)n(CC2CCCO2)c2nc3ccccc3nc12 (configuration not stated) | -1.93
O=C(N/N=C/c1c(O)n(C2CC2)c(=S)[nH]c1=O)c1ccccc1O | -0.398
